# Measurements: article PMC9911399, “Two distinct binding modes provide the RNA-binding protein RbFox with extraordinary sequence specificity”
# Positions count from the first letter of the chain named. The list shows a part of the results.
# T1: RBFOX1 RRM RbFoxmut (Fox-RRM*) (Homo sapiens, UniProt Q9NWB1 109-208, R118D;E147R;N151S;E152T)
# T1 sequence: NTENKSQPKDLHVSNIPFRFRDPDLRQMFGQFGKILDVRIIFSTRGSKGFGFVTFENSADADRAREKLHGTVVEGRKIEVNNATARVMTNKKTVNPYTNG
# B1: AUACACG (DNA:RNA)
# RNA: GGGAGACCGGAAUUCAGAUUGUCCAUACACGUUAAAUCCCGUCGUAGCCACCA
# DNA 1: CAATCTGAATTCCGGTCTCCC
# DNA 2: TGGTGGCTACGACGGGATT
# B2: CAAUUUG (DNA:RNA)
# RNA: B1 RNA with A25C, U26A, C28U, A29U, C30U
# DNA 1: CAATCTGAATTCCGGTCTCCC
# DNA 2: TGGTGGCTACGACGGGATT
# B3: GUUUUGU (DNA:RNA)
# RNA: B1 RNA with A25G, A27U, C28U, A29U, C30G, G31U
# DNA 1: CAATCTGAATTCCGGTCTCCC
# DNA 2: TGGTGGCTACGACGGGATT
# B4: CCGCAUC (DNA:RNA)
# RNA: B1 RNA with A25C, U26C, A27G, C30U, G31C
# DNA 1: CAATCTGAATTCCGGTCTCCC
# DNA 2: TGGTGGCTACGACGGGATT
# B5: AUGUCGC (DNA:RNA)
# RNA: B1 RNA with A27G, C28U, A29C, C30G, G31C
# DNA 1: CAATCTGAATTCCGGTCTCCC
# DNA 2: TGGTGGCTACGACGGGATT
# B6: GUAAGGC (DNA:RNA)
# RNA: B1 RNA with A25G, C28A, A29G, C30G, G31C
# DNA 1: CAATCTGAATTCCGGTCTCCC
# DNA 2: TGGTGGCTACGACGGGATT
# B7: AAGAGUU (DNA:RNA)
# RNA: B1 RNA with U26A, A27G, C28A, A29G, C30U, G31U
# DNA 1: CAATCTGAATTCCGGTCTCCC
# DNA 2: TGGTGGCTACGACGGGATT
# B8: ACGGGUU (DNA:RNA)
# RNA: B1 RNA with U26C, A27G, C28G, A29G, C30U, G31U
# DNA 1: CAATCTGAATTCCGGTCTCCC
# DNA 2: TGGTGGCTACGACGGGATT
# B9: CCAUUUU (DNA:RNA)
# RNA: B1 RNA with A25C, U26C, C28U, A29U, C30U, G31U
# DNA 1: CAATCTGAATTCCGGTCTCCC
# DNA 2: TGGTGGCTACGACGGGATT
# B10: CACCGGC (DNA:RNA)
# RNA: B1 RNA with A25C, U26A, A27C, A29G, C30G, G31C
# DNA 1: CAATCTGAATTCCGGTCTCCC
# DNA 2: TGGTGGCTACGACGGGATT
# B11: UCAUUCA (DNA:RNA)
# RNA: B1 RNA with A25U, U26C, C28U, A29U, G31A
# DNA 1: CAATCTGAATTCCGGTCTCCC
# DNA 2: TGGTGGCTACGACGGGATT
# B12: CCACCCG (DNA:RNA)
# RNA: B1 RNA with A25C, U26C, A29C
# DNA 1: CAATCTGAATTCCGGTCTCCC
# DNA 2: TGGTGGCTACGACGGGATT
# B13: GACGAAA (DNA:RNA)
# RNA: B1 RNA with A25G, U26A, A27C, C28G, C30A, G31A
# DNA 1: CAATCTGAATTCCGGTCTCCC
# DNA 2: TGGTGGCTACGACGGGATT
# B14: CGCAGGG (DNA:RNA)
# RNA: B1 RNA with A25C, U26G, A27C, C28A, A29G, C30G
# DNA 1: CAATCTGAATTCCGGTCTCCC
# DNA 2: TGGTGGCTACGACGGGATT
# B15: AACGCAG (DNA:RNA)
# RNA: B1 RNA with U26A, A27C, C28G, A29C, C30A
# DNA 1: CAATCTGAATTCCGGTCTCCC
# DNA 2: TGGTGGCTACGACGGGATT
# B16: AACCGCU (DNA:RNA)
# RNA: B1 RNA with U26A, A27C, A29G, G31U
# DNA 1: CAATCTGAATTCCGGTCTCCC
# DNA 2: TGGTGGCTACGACGGGATT
# B17: CCACAAG (DNA:RNA)
# RNA: B1 RNA with A25C, U26C, C30A
# DNA 1: CAATCTGAATTCCGGTCTCCC
# DNA 2: TGGTGGCTACGACGGGATT
# B18: CGCGUCU (DNA:RNA)
# RNA: B1 RNA with A25C, U26G, A27C, C28G, A29U, G31U
# DNA 1: CAATCTGAATTCCGGTCTCCC
# DNA 2: TGGTGGCTACGACGGGATT
# B19: AAGUUAC (DNA:RNA)
# RNA: B1 RNA with U26A, A27G, C28U, A29U, C30A, G31C
# DNA 1: CAATCTGAATTCCGGTCTCCC
# DNA 2: TGGTGGCTACGACGGGATT
# B20: UGGUCUG (DNA:RNA)
# RNA: B1 RNA with A25U, U26G, A27G, C28U, A29C, C30U
# DNA 1: CAATCTGAATTCCGGTCTCCC
# DNA 2: TGGTGGCTACGACGGGATT
# B21: CACCGCG (DNA:RNA)
# RNA: B1 RNA with A25C, U26A, A27C, A29G
# DNA 1: CAATCTGAATTCCGGTCTCCC
# DNA 2: TGGTGGCTACGACGGGATT
# B22: CUCACUA (DNA:RNA)
# RNA: B1 RNA with A25C, A27C, C28A, A29C, C30U, G31A
# DNA 1: CAATCTGAATTCCGGTCTCCC
# DNA 2: TGGTGGCTACGACGGGATT
# B23: UAAAAUA (DNA:RNA)
# RNA: B1 RNA with A25U, U26A, C28A, C30U, G31A
# DNA 1: CAATCTGAATTCCGGTCTCCC
# DNA 2: TGGTGGCTACGACGGGATT
# B24: UUACGAA (DNA:RNA)
# RNA: B1 RNA with A25U, A29G, C30A, G31A
# DNA 1: CAATCTGAATTCCGGTCTCCC
# DNA 2: TGGTGGCTACGACGGGATT
# B25: UUGUGUA (DNA:RNA)
# RNA: B1 RNA with A25U, A27G, C28U, A29G, C30U, G31A
# DNA 1: CAATCTGAATTCCGGTCTCCC
# DNA 2: TGGTGGCTACGACGGGATT
# B26: AUCCGCU (DNA:RNA)
# RNA: B1 RNA with A27C, A29G, G31U
# DNA 1: CAATCTGAATTCCGGTCTCCC
# DNA 2: TGGTGGCTACGACGGGATT
# B27: CCGUAAA (DNA:RNA)
# RNA: B1 RNA with A25C, U26C, A27G, C28U, C30A, G31A
# DNA 1: CAATCTGAATTCCGGTCTCCC
# DNA 2: TGGTGGCTACGACGGGATT
# B28: ACGCCAG (DNA:RNA)
# RNA: B1 RNA with U26C, A27G, A29C, C30A
# DNA 1: CAATCTGAATTCCGGTCTCCC
# DNA 2: TGGTGGCTACGACGGGATT
# B29: GCGUUUC (DNA:RNA)
# RNA: GGGAGACCGGAAUUCAGAUUGUCCGCGUUUCUUAAAUCCCGUCGUAGCCACCA
# DNA 1: CAATCTGAATTCCGGTCTCCC
# DNA 2: TGGTGGCTACGACGGGATT
# B30: GACAGCU (DNA:RNA)
# RNA: B1 RNA with A25G, U26A, A27C, C28A, A29G, G31U
# DNA 1: CAATCTGAATTCCGGTCTCCC
# DNA 2: TGGTGGCTACGACGGGATT
# B31: GAAUCCG (DNA:RNA)
# RNA: B1 RNA with A25G, U26A, C28U, A29C
# DNA 1: CAATCTGAATTCCGGTCTCCC
# DNA 2: TGGTGGCTACGACGGGATT
# Target: T1, RBFOX1 RRM RbFoxmut (Fox-RRM*)
# Test: EMSA; HiTS-Eq, 1 nM pool, 10 min; buffer printed only for the single-RNA assays: 10 mM Tris pH 7.5, 150 mM NaCl, 3.4 mM EDTA, 0.001% NP-40, 30 C
# Conditions: tags: His6 N-terminal (pET28a); label: 5' 32P
# Method in brief: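 Purified wild-type or mutant RbFox RRM at increasing concentrations was equilibrated with 1 nM of 5′-radiolabelled RNA carrying 7 randomized nucleotides for 10 min in 50 µL. Unbound RNA was separated by 8% native PAGE and sequenced. Relative association constants came from read-count changes of each RNA species compared with the control reaction, normalised to the cognate motif.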
row,Binder,binding signal
1,B1,0.0989 KA relative to UGCAUGU
2,B2,0.0578 KA relative to UGCAUGU
3,B3,0.161 KA relative to UGCAUGU
4,B4,0.258 KA relative to UGCAUGU
5,B5,0.0947 KA relative to UGCAUGU
6,B6,0.0558 KA relative to UGCAUGU
7,B7,0.0992 KA relative to UGCAUGU
8,B8,0.14 KA relative to UGCAUGU
9,B9,0.0736 KA relative to UGCAUGU
10,B10,0.0862 KA relative to UGCAUGU
11,B11,0.111 KA relative to UGCAUGU
12,B12,0.112 KA relative to UGCAUGU
13,B13,0.085 KA relative to UGCAUGU
14,B14,0.0806 KA relative to UGCAUGU
15,B15,0.0529 KA relative to UGCAUGU
16,B16,0.072 KA relative to UGCAUGU

row,Binder,binding signal
1,B17,0.107 KA relative to UGCAUGU
2,B18,0.0875 KA relative to UGCAUGU
3,B19,0.0976 KA relative to UGCAUGU
4,B20,0.374 KA relative to UGCAUGU
5,B21,0.124 KA relative to UGCAUGU
6,B22,0.105 KA relative to UGCAUGU
7,B23,0.074 KA relative to UGCAUGU
8,B24,0.0964 KA relative to UGCAUGU
9,B25,0.315 KA relative to UGCAUGU
10,B26,0.121 KA relative to UGCAUGU
11,B27,0.101 KA relative to UGCAUGU
12,B28,0.117 KA relative to UGCAUGU
13,B29,0.135 KA relative to UGCAUGU
14,B30,0.0646 KA relative to UGCAUGU
15,B31,0.219 KA relative to UGCAUGU
